Hit rate of the full screen: of about 48,000 compounds, about 120 (0.25%) were called active. Not shown: some 4% with an inconclusive outcome. Calls follow the shape of the dose curve; as a rule, active = well fitted activation curve with a large enough effect; inconclusive = small, poorly fitted or top-dose-only effect, or another doubt; inactive = no such curve, though single readings can be large or run the other way. Some of the results follow.
Assay: Primary qHTS for Identification of Small Molecule Activators of Huntingtin-Antisense Promoter Activity; also: nearly all actives have a fitted effect of over 55% in size
Conditions: HEK293 HTT-AS promoter firefly luciferase reporter, 24 h; series mostly up to 57.5 µM; activity change, positive = activation: at the top concentration
Method in brief: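 Luminescence was read after Dual-Glo reagent and a 10 min room-temperature incubation. Values were normalized to vehicle (0% activity) and zero RLU (-100% activity). Reporter HEK293 cells had been exposed to compounds (up to 57.5 uM final) for 24 h.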

Activity change, positive = activation, inactive:
COc1cccc(C2=NN(S(C)(=O)=O)C(c3cn(-c4ccccc4)nc3-c3cccs3)C2)c1 (stereo unspecified) 3.74%
COc1ccc(CNC(=O)CN(C)c2nn3c(=O)cc(C)nc3s2)cc1 -8.12%
CC(=O)c1ccc(N2CCN(C(=O)CS(=O)(=O)c3cccc4nsnc34)CC2)cc1 -22.7%
COc1ccccc1NC(=O)N1CC=C(c2c[nH]c3ccccc23)CC1 1.52%
CCOc1ccc(C(=O)NCCS(=O)(=O)N2CCN(c3cccc(Cl)c3)CC2)cc1 -17.5%
CC(=O)Oc1ccc(C2(c3ccc(OC(C)=O)cc3)Oc3ccccc3NC2=O)cc1 -49.2%
Cc1cc(=O)[nH]c2nnc(SCCC(C)C)n12 2%
CC1CN(C(=O)CCC(=O)NCc2cccs2)c2ccccc2O1 (stereo unspecified) 12.4%
COc1ccc(NC(=O)c2c(NCc3ccc(C)o3)sc3c2CCC(C)C3)cc1 (stereo unspecified) 15.3%
Cc1ccc(S(=O)(=O)c2cn(C)c3cc(N4CCN(c5ccccc5)CC4)c(F)cc3c2=O)cc1 -6.37%
CCOC(=O)N1CCc2c(sc3c2c(=O)n(Cc2ccccc2)c(=O)n3Cc2cccc(Cl)c2)C1 -12.9%
CCOC(=O)c1ccc(NC(=O)c2nc(S(=O)(=O)Cc3ccccc3)ncc2Cl)cc1 -96.1%
COc1cc(NC(=O)C2=C(C)Nc3nnnn3C2c2ccc(SC)cc2)c(OC)cc1Cl (stereo unspecified) -21.9%
CCOc1ccccc1NC(=O)C1CCN(S(=O)(=O)c2ccc(Br)cc2)CC1 -1.17%
Cc1ccc(-n2nc(C(=O)N3CCCCC3C)c(=O)n(C)c2=O)cc1 (stereo unspecified) 0.0128%
Cc1nn(CCCC(=O)NCc2ccccc2)c(=O)c2c1sc1ccccc12 3.99%
O=C(NCCCN1CCN(c2ccc(F)cc2)CC1)c1cc2c(s1)-c1ccccc1OC2 -27.2%
CCOC(=O)c1ccc2c(c1)N(CC(=O)Nc1cc(F)ccc1F)C(=O)c1ccccc1S2 -10.7%
C[N+]1(C)[C@@H]2CC(OC(=O)[C@H](CO)c3ccccc3)C[C@H]1[C@@H]1O[C@@H]12 (stereo partly specified) -7.2%
OCC(CO)N[C@H]1C[C@](O)(CO)[C@@H](O)[C@H](O)[C@H]1O -5.99%
CC1=C(C(N)=O)C(c2cccc(C)c2)n2nc(-c3ccc(Cl)cc3)nc2N1 (stereo unspecified) -7.62%
CSc1ccccc1NC(=O)C1=CC(c2ccc3c(c2)OCO3)=NS(=O)(=O)N1C -16.1%
CCOC(CN1CCN(CC(C)C(=O)c2ccccc2)CC1)c1ccccc1 (stereo unspecified) -9.94% [at 25.1 µM, percent change from vehicle, -100% = no light]
Cc1cccc(-c2nc3cc(NC(=O)Cc4ccc(Cl)cc4)ccc3o2)c1 -16.3%
CCN(CC)CCOC(=O)c1ccc(NC(=O)c2nn(-c3ccc(C)cc3)c(=O)c3c2c2ccccc2n3C)cc1 -23.2%
CCOC(=O)CCN(Cc1ccccc1)S(=O)(=O)c1csc(C(N)=O)c1 6.64%

Source: PubChem BioAssay AID1508624 (National Center for Advancing Translational Sciences (NCATS), 2021)
